# Data taken from PubChem BioAssay AID651742 (Broad Institute, 2012).
# The whole screen tested about 5,600 compounds, of which about 780 (14%) were called active. The shares of active, inactive and inconclusive entries below differ from those in the screen.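 How the source made its calls: active means mean signal decrease across replicates above about 35% based on untreated-well scatter, with enough replicates individually passing (limit read from the data); inconclusive means no rule stated though some were filed; inactive means the rest.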
# Experiment: NIH3T3 cell viability loss – cherry-pick, single point, cytotoxicity control for T. cruzi proliferation inhibitor project, confirmation (AID 651742);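 further: 0% = median of neutral control wells and 100% = median of positive control wells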
# Conditions: NIH/3T3 viability, CellTiter-Glo ATP luminescence, 90 h; at 8.35 µM; active compounds read high
row,Compound,cytotoxicity (signal decrease)
1,N#C[C@H]1[C@H](c2ccc(C#Cc3ccccc3F)cc2)[C@@H](CO)N1C(=O)C1CCC1,inactive: -5.54%
2,C[C@@H]1CN([C@@H](C)CO)S(=O)(=O)c2ccc(-c3cccc(C#N)c3)cc2O[C@@H]1CN(C)C(=O)c1ccc(F)cc1,inconclusive: 35.7%
3,C[C@@H]1CN([C@@H](C)CO)C(=O)c2cc(C3=CCCC3)cnc2O[C@@H]1CN(C)C(=O)Nc1ccc(C(F)(F)F)cc1,inconclusive: 37.2%
4,Cc1ccc(S(=O)(=O)N(C)C[C@@H]2Oc3cc(-c4cccc(F)c4)ccc3S(=O)(=O)N([C@H](C)CO)C[C@@H]2C)cc1,inconclusive: 36.1%
5,CNC[C@H]1Oc2cc(C#Cc3ccccc3OC)ccc2S(=O)(=O)N([C@@H](C)CO)C[C@@H]1C,inconclusive: 39.3%
6,Cc1ccc(-c2ccc([C@@H]3[C@H](CO)N4CCCCN(C(=O)c5ccc(F)cc5)C[C@@H]34)cc2)cc1,inconclusive: 35.2%
7,CC(C)CC#Cc1ccc2c(c1)O[C@@H](CN(C)C(=O)c1ccccc1F)[C@H](C)CN([C@@H](C)CO)S2(=O)=O,inconclusive: 36.5%
8,C[C@H]1CN([C@@H](C)CO)S(=O)(=O)c2ccc(C3=CCCCC3)cc2O[C@@H]1CN(C)S(=O)(=O)c1ccc(F)cc1,inconclusive: 36.3%
9,C/C=C/c1ccc2c(c1)O[C@H](CN(C)Cc1ccc(F)cc1)[C@@H](C)CN([C@H](C)CO)S2(=O)=O,inconclusive: 36%
10,O=C(C[C@H]1C[C@H]2c3cc(NC(=O)NC4CCCCC4)ccc3O[C@H]2[C@@H](CO)O1)NCc1ccccc1,inactive: 12.9%
11,OC[C@@H]1[C@H](c2ccc(/C=C/c3ccccc3)cc2)[C@@H]2CN(Cc3ccncc3)CCCCN12,inconclusive: 36.4%
12,Cc1ccc(S(=O)(=O)N(C)C[C@H]2Oc3c(NC(=O)c4nc5ccccc5s4)cccc3C(=O)N([C@@H](C)CO)C[C@@H]2C)cc1,inactive: 10.1%
13,CCCC#Cc1ccc2c(c1)O[C@H](CN(C)Cc1cncnc1)[C@@H](C)CN([C@@H](C)CO)S2(=O)=O,inconclusive: 35.6%
14,C[C@@H]1CN([C@H](C)CO)S(=O)(=O)c2ccc(C#CC3CC3)cc2O[C@H]1CN(C)Cc1ccccc1,inconclusive: 36.5%
15,C[C@H]1CN([C@@H](C)CO)S(=O)(=O)c2ccc(C3=CCCCC3)cc2O[C@@H]1CN(C)C(=O)c1ccc(F)cc1,active: 47%
16,C[C@H](CO)N1C[C@H](C)[C@H](CN(C)Cc2ccc3c(c2)OCO3)OCCCC[C@H](C)Oc2ccc(NC(=O)Nc3ccc(C(F)(F)F)cc3)cc2C1=O,active: 124%
17,C[C@@H]1CN([C@H](C)CO)S(=O)(=O)c2ccc(C3=CCCC3)cc2O[C@H]1CN(C)Cc1cccnc1,inconclusive: 45.9%
18,Cc1ccccc1S(=O)(=O)N1CCCCN2[C@@H](CO)[C@@H](c3ccc(C#CCN(C)C)cc3)[C@@H]2C1,inconclusive: 34%
19,Cc1ccccc1-c1ccc([C@H]2[C@H](CO)N3CCCCN(S(=O)(=O)c4ccc(F)cc4)C[C@@H]23)cc1,inconclusive: 36.3%

row,Compound,cytotoxicity (signal decrease)
1,O=S(=O)(c1cccs1)N1CCCCN2[C@H](C1)[C@@H](c1ccc(Br)cc1)[C@@H]2CO,inconclusive: 36.1%
2,Cc1cccc(-c2ccc([C@H]3[C@@H](CO)N4CCCCN(C(=O)c5ccc6c(c5)OCO6)C[C@@H]34)cc2)c1,inconclusive: 39.1%
3,C[C@H](CO)N1C[C@H](C)[C@H](CN(C)S(=O)(=O)c2cccc(F)c2)Oc2ncc(/C=C/c3ccccc3)cc2C1=O,inconclusive: 37.5%
4,C[C@@H]1CN([C@@H](C)CO)S(=O)(=O)c2ccc(-c3cccc(F)c3)cc2O[C@@H]1CN(C)S(=O)(=O)c1ccccc1,active: 46.5%
5,C[C@@H]1CN([C@@H](C)CO)C(=O)Cc2cc(NS(=O)(=O)c3ccc(F)cc3)ccc2O[C@H]1CN(C)Cc1ccccc1,inactive: 32.2%
6,Cc1ccccc1S(=O)(=O)N1[C@H](C#N)[C@H](c2ccc(-c3ccc(F)cc3)cc2)[C@H]1CO,inconclusive: 36.8%
7,C[C@@H]1CN([C@@H](C)CO)S(=O)(=O)c2ccc(C#Cc3ccccn3)cc2O[C@H]1CN(C)Cc1cccc(F)c1,inactive: 18.5%
8,CN1c2ccc(-c3ccccc3F)cc2[C@@H]2[C@@H](CCN2S(=O)(=O)c2ccc(F)cc2)[C@H]1CO,inconclusive: 36.8%
9,C[C@@H]1CN([C@@H](C)CO)C(=O)c2cc(NS(=O)(=O)c3ccc(Cl)cc3)ccc2O[C@@H](C)CCCCO[C@H]1CN(C)CC1CCCCC1,inconclusive: 35%
10,C[C@H](CO)N1C[C@H](C)[C@H](CN(C)C(=O)Cc2ccccn2)Oc2cc(C#Cc3ccccc3)ccc2S1(=O)=O,inactive: 27.8%
11,COc1ccc(C#Cc2ccc3c(c2)O[C@H](CN(C)C(=O)Nc2cccc(OC)c2)[C@@H](C)CN([C@@H](C)CO)S3(=O)=O)cc1,inconclusive: 34.2%
12,CN1c2ccc(-c3ccc(C#N)cc3)cc2[C@@H]2[C@@H](CCN2C(=O)CC2CC2)[C@@H]1CO,active: 46.8%
13,Cc1ccccc1-c1ccc2c(c1)O[C@H](CN(C)C(=O)Nc1ccccc1)[C@@H](C)CN([C@@H](C)CO)S2(=O)=O,inconclusive: 35.6%
14,Cc1ccc(-c2ccc([C@@H]3[C@H](CO)N4CCCCN(C(=O)Nc5ccccc5)C[C@@H]34)cc2)cc1,active: 120%
15,C[C@@H]1CCCCO[C@@H](CN(C)S(=O)(=O)c2ccc(F)cc2)[C@@H](C)CN([C@H](C)CO)C(=O)c2cc(NC(=O)Nc3ccc(C(F)(F)F)cc3)ccc2O1,inconclusive: 34.3%
16,C[C@@H]1CN([C@@H](C)CO)C(=O)c2ccccc2-c2ccccc2CO[C@H]1CN(C)S(=O)(=O)c1ccc(C(F)(F)F)cc1,inactive: 5.01%
17,C[C@H]1CN([C@@H](C)CO)S(=O)(=O)c2ccc(-c3ccccc3)cc2O[C@H]1CN(C)Cc1cccc(F)c1,inactive: 24.9%
18,C[C@@H]1CCCCO[C@H](CN(C)Cc2ccc3c(c2)OCO3)[C@@H](C)CN([C@@H](C)CO)C(=O)c2cc(NS(=O)(=O)c3ccc(Cl)cc3)ccc2O1,inconclusive: 37.2%
